According to the supplement of paper PMC4166925:
± gives the standard deviation of the averaged measurements. The full ranking holds about 33,000 sequences; the median of “E-score (dimensionless, -0.5 to 0.5)” is about -0.049, and the highest 2% start at about 0.37. This is one part of the list.

tested on: T1, PmTbr T-box DNA-binding domain (GST fusion); assay: PBM E-score of 8-mer (E-score (dimensionless, -0.5 to 0.5)); Tbr is Tbrain of the sea star Patiria miniata (Pm) or the sea urchin Strongylocentrotus purpuratus (Sp); higher = stronger binding preference; most listed sequences are background and not binding sites; conditions: the construct has about 5 more residues each side
T1 sequence: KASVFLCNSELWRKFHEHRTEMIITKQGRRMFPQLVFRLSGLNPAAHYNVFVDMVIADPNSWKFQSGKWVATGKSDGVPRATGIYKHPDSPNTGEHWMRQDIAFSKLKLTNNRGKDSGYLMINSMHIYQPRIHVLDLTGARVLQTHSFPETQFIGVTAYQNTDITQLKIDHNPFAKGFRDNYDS
Procedure, shortened: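 Primer extension turned Universal Agilent oligonucleotide arrays double-stranded. They were incubated with 200 nM protein in PBS (pH 7.5); the protein was a GST-fused Tbr T-box DNA-binding domain expressed in BL21 E. coli at 20 °C and purified on glutathione. Every ungapped 8-mer was scored from the scanned, quantified probe intensities, and the Universal PBM Analysis Suite gave each an enrichment E-score averaged over duplicate arrays.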

Row | Sequence | PBM E-score of 8-mer
1 | AAGGCACA | -0.168 ± 0.042
2 | GGTCATAA | -0.21 ± 0.0042
3 | CATCGAGG | -0.0784 ± 0.06
4 | AGTGCCCC | -0.173 ± 0.11
5 | GTGCTCAA | -0.188 ± 0.027
6 | CCTCCCCC | 0.00104 ± 0.014
7 | TAGGGTAA | -0.0929 ± 0.022
8 | ACGTGAAA | 0.098 ± 0.075
9 | CGCCATTC | 0.212 ± 0.014
10 | ATCATGAT | -0.00826 ± 0.057
11 | ACCCACTA | -0.00321 ± 0.017
12 | GGCGCGAC | 0.377 ± 0.025
13 | AGAAAGTA | -0.0263 ± 0.14
14 | CCGTGCAC | -0.0742 ± 0.048
15 | AAATGCCA | 0.0452 ± 0.0051
16 | ACGTGTAA | 0.31 ± 0.0077
17 | AAGCGCAG | 0 ± 0.06
18 | ATCCTCCC | -0.119 ± 0.0046
19 | AGGCGGGG | -0.0429 ± 0.052
20 | CATTACCA | -0.0668 ± 0.0072
21 | CAAGGACC | -0.212 ± 0.036
22 | CCTTACTA | 0.0144 ± 0.052
23 | ACACTGTA | 0.178 ± 0.0039
24 | TCTCTCCA | -0.117 ± 0.068
25 | TCCCAGAA | -0.0343 ± 0.051

Row | Sequence | PBM E-score of 8-mer
26 | ATTATTTA | -0.0583 ± 0.074
27 | ATATTCGA | -0.0346 ± 0.071
28 | AGCGTACC | -0.233 ± 0.018
29 | CCCGAATC | 0.00343 ± 0.029
30 | GTATGCGA | -0.0624 ± 0.0048
31 | TCGCCTCA | 0.162 ± 0.025
32 | AATCAATC | -0.0715 ± 0.024
33 | CTCCGTTA | 0.00137 ± 0.068
34 | GATGTTAA | -0.0968 ± 0.0093
35 | ACAGATAA | 0.0605 ± 0.021
36 | ACAATGAG | -0.0237 ± 0.009
37 | CCACGCTC | 0.0186 ± 0.12
38 | ATCGACAC | 0.398 ± 0.025
39 | ACGGTGAC | 0.285 ± 0.0079
40 | CTTCACAA | 0.225 ± 0.058
41 | GCGAAGTA | 0.262 ± 0.037
42 | CACGGTGG | 0.104 ± 0.027
43 | ACCGGGGC | -0.0516 ± 0.04
44 | AAGCGGAC | -0.232 ± 0.016
45 | CGAGAAAC | 0.121 ± 0.015
46 | ATTCGCTG | -0.172 ± 0.036
47 | AACCGCTT | -0.158 ± 0.071
48 | ATCGGGAG | -0.0243 ± 0.00094
49 | GACCGCGC | 0.0617 ± 0.021
50 | TACCATGA | -0.158 ± 0.034

Row | Sequence | PBM E-score of 8-mer
51 | AGGGCCCG | -0.135 ± 0.058
52 | ACCAATCA | -0.0557 ± 0.044
53 | GTCTTTCA | -0.0206 ± 0.036
54 | ACGTTTGC | 0.0202 ± 0.072
55 | ACAGACAT | 0.0773 ± 0.016
56 | CAATTAGC | 0.022 ± 0.03
57 | CCGTCATA | 0.115 ± 0.028
58 | ACACTTTA | 0.338 ± 0.029
59 | CTGATAAG | -0.0195 ± 0.063
60 | ACTAACTC | -0.0389 ± 0.019
61 | ACGTCGAT | -0.00998 ± 0.039
62 | CCCCCACA | -0.178 ± 0.043
63 | CCACGCCC | 6.5e-05 ± 0.0061
64 | ACTTGTCT | 0.14 ± 0.017
65 | AGACGGGA | 0.0086 ± 0.0017
66 | ATTCTCCA | 0.012 ± 0.038
67 | CTGCCGAC | 0.118 ± 0.069
68 | CCCCGGAA | -0.119 ± 0.011
69 | CAACCTGG | 0.0279 ± 0.013
70 | ACATAAAA | 0.0836 ± 0.13
71 | AAATCAGA | -0.231 ± 0.049
72 | ATCTTTCG | -0.0201 ± 0.0048
73 | AACAGTGG | 0.0244 ± 0.0038
74 | CCTACCCC | -0.152 ± 0.039
75 | GATAGTAC | -0.0971 ± 0.036

Row | Sequence | PBM E-score of 8-mer
76 | CAGGCACA | 0.108 ± 0.086
77 | CTAGATGA | -0.212 ± 0.017
78 | AGAGGTGC | 0.411 ± 0.0084
79 | GAGGTTTA | -0.0468 ± 0.025
80 | GTAATAAC | -0.151 ± 0.064
81 | GTGCTGGA | 0.0191 ± 0.074
82 | ATGCCGGC | -0.0777 ± 0.025
83 | ACGCTAAC | 0.257 ± 0.056
84 | GCGACCGC | 0.087 ± 0.13
85 | GCAAGATA | -0.0355 ± 0.012
86 | CCTGTGGA | -0.0641 ± 0.029
87 | ACCCCGCG | 0.226 ± 0.012
88 | CCCCCAAC | -0.0241 ± 0.11
89 | GTAGCAGA | -0.0907 ± 0.0014
90 | AAGGAAGC | -0.0628 ± 0.053
91 | TAGAACCA | -0.215 ± 0.075
92 | GACGCCAC | 0.114 ± 0.043
93 | ATCGGACC | -0.189 ± 0.0051
94 | ATTTAGAG | -0.17 ± 0.077
95 | AAGCGTTA | 0.187 ± 0.077
96 | CAATTTGC | 0.0919 ± 0.073
97 | GCCCTTCC | -0.151 ± 0.028
98 | AGTGAGTC | -0.0283 ± 0.033
99 | ACCTCAGT | 0.152 ± 0.024
100 | AGCAGTGA | -0.0556 ± 0.013

Row | Sequence | PBM E-score of 8-mer
101 | AGGGTCGA | -0.0873 ± 0.054
102 | CCTCAAAG | -0.0193 ± 0.016
103 | ATGGTGGA | -0.344 ± 0.04
104 | AACTGTCT | 0.102 ± 0.027
105 | CCGTTTAG | 0.0579 ± 0.001
106 | ATATGCAG | 0.0698 ± 0.046
107 | GCTGGTCA | -0.0258 ± 0.028
108 | AGTCTACA | -0.203 ± 0.08
109 | CAACTGTG | 0.231 ± 0.015
110 | AGGGGGCG | 0.164 ± 0.09
111 | AGTTCAAC | -0.021 ± 0.0013
112 | ATACTCAA | -0.194 ± 0.011
113 | CTCCAACA | 0.153 ± 0.0093
114 | CATACGAC | -0.143 ± 0.049
115 | CATTAGGC | 0.00258 ± 0.0073
116 | CATGCCGA | -0.0134 ± 0.033
117 | CTCTATAC | -0.177 ± 0.0022
118 | AGCGCTAA | 0.362 ± 0.02
119 | ACCGTTTA | -0.0705 ± 0.024
120 | AAGTTAAG | -0.234 ± 0.019
121 | ATTAGTGG | 0.026 ± 0.014
122 | TCTAGAAA | -0.0404 ± 0.059
123 | TAATACGA | -0.147 ± 0.047
124 | CAATCCCC | -0.071 ± 0.04
125 | AGACCTAA | -0.0394 ± 0.017

Row | Sequence | PBM E-score of 8-mer
126 | GATATGAC | -0.0509 ± 0.046
127 | GGACTCCC | -0.185 ± 0.003
128 | AAATACAG | -0.102 ± 0.0019
129 | AATGTGGT | 0.0377 ± 0.043
130 | TAACAAGA | 0.0263 ± 0.085
131 | AATAACCC | -0.0826 ± 0.041
132 | CGGACTCA | -0.0531 ± 0.099
133 | ATGCAGTG | -0.0626 ± 0.0092
134 | AATTCGCT | 0.00911 ± 0.0077
135 | AGCGTGAG | 0.24 ± 0.042
136 | AGGGCTTA | -0.238 ± 0.059
137 | ACCTTCCA | 0.0703 ± 0.049
138 | ACGACCTA | 0.0469 ± 0.0017
139 | CGTCACTC | 0.26 ± 0.035
140 | TCACGCAA | 0.23 ± 0.022
141 | AGGGGCTA | -0.0402 ± 0.059
142 | CGTGCCAA | 0.324 ± 0.0048
143 | GAGCTGTA | -0.0747 ± 0.051
144 | CCCTGTTA | 0.14 ± 0.0042
145 | GGCGGCAC | 0.178 ± 0.0052
146 | AGTGGTGG | 0.0989 ± 0.0074
147 | AAATAAAT | -0.1 ± 0.085
148 | CATGTGCG | 0.193 ± 0.035
149 | TATAGATA | -0.21 ± 0.065
150 | CTGGGTCA | -0.182 ± 0.036

Row | Sequence | PBM E-score of 8-mer
151 | ATTCAACG | 0.00787 ± 0.033
152 | ATTGTAAA | -0.0342 ± 0.055
153 | ACCTATAC | 0.0993 ± 0.049
154 | ATGGACTC | -0.231 ± 0.017
155 | ATACTTAG | -0.0881 ± 0.025
156 | GGCCTGCA | -0.241 ± 0.05
157 | AGTTTTCG | 0.0439 ± 0.008
158 | GGGGCAAC | -0.152 ± 0.011
159 | CCCTCATA | 0.0904 ± 0.054
160 | GCATGGGC | 0.075 ± 0.043
161 | ATTTCTGA | -0.0775 ± 0.065
162 | TACCACCA | 0.106 ± 0.0074
163 | CTAAACGC | 0.0238 ± 0.063
164 | AAGCCCCC | -0.289 ± 0.0095
165 | ACCGTAAC | -0.0607 ± 0.0048
166 | AGACTAAC | 0.158 ± 0.012
167 | CGGACCAA | -0.351 ± 0.047
168 | GGGAGTTA | -0.126 ± 0.084
169 | CGGGTCTC | -0.0249 ± 0.063
170 | AACCAGAT | -0.12 ± 0.095
171 | GTTTCTGA | -0.115 ± 0.028
172 | TGCTCGAA | -0.311 ± 0.1
